# Source: the supplement of paper PMC8728848
# The list shows a part of the results.
# How the values were obtained:
# Test in all cases: glycan array binding signal (z-score within array); higher = stronger binding
# Settings in all cases: glycan notation: IUPAC condensed, linker removed
# [1] = target: Neu5Ac(a2-6)GlcNAc(b1-4)GlcNAc(b1-4)GlcNAc
# In short: (§1)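 Glycan array data came from 3228 arrays in the Consortium for Functional Glycomics database, and only arrays with an available protein sequence were kept. Glycan names were put into IUPAC-condensed notation, and columns mapping to the same glycan were averaged. The binding signal is a within-array Z-score, averaged across arrays of one protein sequence run at different concentrations or buffers and across linkers. A negative Z-score can be read as non-binding.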
# Neu5Ac(a2-8)Neu5Ac = target: Neu5Ac(a2-8)Neu5Ac
# In short: as §1
# [2] = target: Neu5Ac(a2-8)Neu5Ac(a2-3)Gal(b1-3)GalNAc(b1-4)[Neu5Ac(a2-3)]Gal(b1-4)Glc
# In short: as §1
# [3] = target: Neu5Ac(a2-8)Neu5Ac(a2-3)Gal(b1-3)GalNAc(b1-4)[Neu5Ac(a2-8)Neu5Ac(a2-3)]Gal(b1-4)Glc
# In short: as §1
# [4] = target: Neu5Ac(a2-8)Neu5Ac(a2-3)Gal(b1-4)Glc
# In short: as §1
# [5] = target: Neu5Ac(a2-8)Neu5Ac(a2-3)Gal(b1-4)GlcNAc
# In short: as §1
# [6] = target: Neu5Ac(a2-8)Neu5Ac(a2-3)[Gal(b1-3)GalNAc(b1-4)]Gal(b1-4)Glc
# In short: as §1
# [7] = target: Neu5Ac(a2-8)Neu5Ac(a2-3)[GalNAc(b1-4)]Gal(b1-4)Glc
# In short: as §1
# [8] = target: Neu5Ac(a2-8)Neu5Ac(a2-8)Neu5Ac
# In short: as §1
# [9] = target: Neu5Ac(a2-8)Neu5Ac(a2-8)Neu5Ac(a2-3)Gal(b1-4)Glc
# In short: as §1
# [10] = target: Neu5Ac(a2-8)Neu5Ac(a2-8)Neu5Ac(a2-3)[Gal(b1-3)GalNAc(b1-4)]Gal(b1-4)Glc
# In short: as §1
# [11] = target: Neu5Ac(a2-8)Neu5Ac(a2-8)Neu5Ac(a2-3)[GalNAc(b1-4)]Gal(b1-4)Glc
# In short: as §1
# [12] = target: Neu5Ac(a2-8)Neu5Ac(a2-8)Neu5Ac(a2-8)Neu5Ac(a2-3)[GalNAc(b1-4)]Gal(b1-4)Glc
# In short: as §1
# [13] = target: Neu5Ac(a2-8)Neu5Gc(a2-3)Gal(b1-4)GlcNAc
# In short: as §1
# [14] = target: Neu5Ac(b2-6)Gal(b1-4)GlcNAc
# In short: as §1
# Neu5Ac(b2-6)GalNAc = target: Neu5Ac(b2-6)GalNAc
# In short: as §1
# [15] = target: Neu5Ac9Ac(a2-3)Gal(b1-3)GlcNAc
# In short: as §1
# [16] = target: Neu5Ac9Ac(a2-3)Gal(b1-4)GlcNAc
# In short: as §1
# [17] = target: Neu5Ac9Ac(a2-6)Gal(b1-4)GlcNAc
# In short: as §1
# [18] = target: Neu5Gc(a2-3)Gal(b1-3)GlcNAc
# In short: as §1
# [19] = target: Neu5Gc(a2-3)Gal(b1-3)[Fuc(a1-4)]GlcNAc
# In short: as §1
# Neu5Gc(a2-3)Gal(b1-4)Glc = target: Neu5Gc(a2-3)Gal(b1-4)Glc
# In short: as §1
# [20] = target: Neu5Gc(a2-3)Gal(b1-4)GlcNAc
# In short: as §1
# [21] = target: Neu5Gc(a2-3)Gal(b1-4)GlcNAc(b1-3)Gal(b1-4)GlcNAc(b1-2)Man(a1-3)[Neu5Gc(a2-3)Gal(b1-4)GlcNAc(b1-3)Gal(b1-4)GlcNAc(b1-2)Man(a1-6)]Man(b1-4)GlcNAc(b1-4)GlcNAc
# In short: as §1
# [22] = target: Neu5Gc(a2-3)Gal(b1-4)[Fuc(a1-3)]GlcNAc
# In short: as §1
# [23] = target: Neu5Gc(a2-6)Gal(b1-4)GlcNAc
# In short: as §1
# Neu5Gc(a2-6)GalNAc = target: Neu5Gc(a2-6)GalNAc
# In short: as §1
# [24] = target: Neu5Gc(a2-8)Neu5Ac(a2-3)Gal(b1-4)GlcNAc
# In short: as §1
# [25] = target: Neu5Gc(a2-8)Neu5Gc(a2-3)Gal(b1-4)GlcNAc
# In short: as §1
# [26] = target: Neu5Gc(a2-8)Neu5Gc(a2-3)Gal(b1-4)GlcNAc(b1-3)Gal(b1-4)GlcNAc
# In short: as §1
# [27] = target: Neu5Gc(a2-8)Neu5Gc(a2-6)Gal(b1-4)GlcNAc
# In short: as §1
# [28] = target: Neu5Gc(b2-6)Gal(b1-4)GlcNAc
# In short: as §1
binder,measurement,setting,value
"Siglec-9 (Homo sapiens), Q9Y336 (protein) MLLLLLPLLWGRERAEGQTSKLLTMQSSVTVQEGLCVHVPCSFSYPSHGWIYPGPVVHGYWFREGANTDQDAPVATNNPARAVWEETRDRFHLLGDPHTKNCTLSIRDARRSDAGRYFFRMEKGSIKWNYKHHRLSVNVTALTHRPNILIPGTLESGCPQNLTCSVPWACEQGTPPMISWIGTSVSPLDPSTTRSSVLTLIPQPQDHGTSLTCQVTFPGASVTTNKTVHLNVSYPPQNLTMTVFQGDGTVSTVLGNGSSLSLPEGQSLRLVCAVDAVDSNPPARLSLSWRGLTLCPSQPSNPGVLELPWVHLRDAAEFTCRAQNPLGSQQVYLNVSLQSKATSGVTQGVVGGAGATALVFLSFCVIFVVVRSCRKKSARPAAGVGDTGIEDANAVRGSASQGPLTEPWAEDSPPDQPPPASARSSVGEGELQYASLSFQMVKPWDSRGQEATDTEYSEIKIHR",glycan array binding signal (z-score),[1],-0.29
same,glycan array binding signal (z-score),Neu5Ac(a2-8)Neu5Ac,0.068
same,glycan array binding signal (z-score),[2],-0.141
same,glycan array binding signal (z-score),[3],0.126
same,glycan array binding signal (z-score),[4],-0.136
same,glycan array binding signal (z-score),[5],-0.259
same,glycan array binding signal (z-score),[6],-0.214
same,glycan array binding signal (z-score),[7],-0.148
same,glycan array binding signal (z-score),[8],-0.139
same,glycan array binding signal (z-score),[9],0.076
same,glycan array binding signal (z-score),[10],-0.293
same,glycan array binding signal (z-score),[11],0.005
same,glycan array binding signal (z-score),[12],-0.237
same,glycan array binding signal (z-score),[13],-0.084
same,glycan array binding signal (z-score),[14],-0.086
same,glycan array binding signal (z-score),Neu5Ac(b2-6)GalNAc,-0.222
same,glycan array binding signal (z-score),[15],-0.133
same,glycan array binding signal (z-score),[16],0.165
same,glycan array binding signal (z-score),[17],-0.042
same,glycan array binding signal (z-score),[18],-0.028
same,glycan array binding signal (z-score),[19],-0.012
same,glycan array binding signal (z-score),Neu5Gc(a2-3)Gal(b1-4)Glc,0.235
same,glycan array binding signal (z-score),[20],0.444
same,glycan array binding signal (z-score),[21],-0.051
same,glycan array binding signal (z-score),[22],0.005
same,glycan array binding signal (z-score),[23],-0.128
same,glycan array binding signal (z-score),Neu5Gc(a2-6)GalNAc,-0.06
same,glycan array binding signal (z-score),[24],0.005
same,glycan array binding signal (z-score),[25],-0.136
same,glycan array binding signal (z-score),[26],-0.178
same,glycan array binding signal (z-score),[27],-0.451
same,glycan array binding signal (z-score),[28],0.086
